# Publication PMC6919601, “Identification of Plasmodium dipeptidyl aminopeptidase allosteric inhibitors by high throughput screening” (PLoS ONE, 2019)
# The campaign covered roughly 110,000 compounds. About 230 (0.21%) showed an effect of 50% or more. This is one part of the list.
# Target: DPAP1 (Plasmodium falciparum, UniProt Q8IIJ9)
# Experiment: primary screen, percent inhibition; read by cleavage of a fluorogenic dipeptide substrate; higher = more effect of the substance
# Set-up: species or system P. falciparum D10 trophozoite lysates; single well
# 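Also: 30 min substrate incubation versus DMSO and 10 µM JCP410 controls.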
# Sequence of DPAP1 (Q8IIJ9 whole entry, looked up): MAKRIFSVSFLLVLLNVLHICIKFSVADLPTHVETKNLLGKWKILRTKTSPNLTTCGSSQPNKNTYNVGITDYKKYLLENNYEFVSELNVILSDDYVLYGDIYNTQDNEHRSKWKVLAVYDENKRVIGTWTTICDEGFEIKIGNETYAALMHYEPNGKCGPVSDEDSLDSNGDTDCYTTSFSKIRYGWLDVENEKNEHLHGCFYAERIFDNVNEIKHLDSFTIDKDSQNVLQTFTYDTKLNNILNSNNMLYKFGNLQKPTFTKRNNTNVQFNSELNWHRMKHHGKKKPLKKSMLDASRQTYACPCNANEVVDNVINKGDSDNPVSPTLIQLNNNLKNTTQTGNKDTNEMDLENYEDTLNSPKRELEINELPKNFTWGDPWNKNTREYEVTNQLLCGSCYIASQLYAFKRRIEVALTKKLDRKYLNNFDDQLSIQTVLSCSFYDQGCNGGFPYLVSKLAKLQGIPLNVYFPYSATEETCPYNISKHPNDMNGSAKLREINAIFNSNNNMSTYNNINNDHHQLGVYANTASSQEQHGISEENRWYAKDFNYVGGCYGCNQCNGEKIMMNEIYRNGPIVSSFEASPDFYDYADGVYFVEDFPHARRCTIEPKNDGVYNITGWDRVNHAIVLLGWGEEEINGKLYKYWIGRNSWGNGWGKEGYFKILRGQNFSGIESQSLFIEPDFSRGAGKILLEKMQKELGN
row,Structure (SMILES),% Inhibition @ 10 uM
1,CC(=O)C1=C(C)NC(=O)NC1c1ccc(Cl)cc1 (stereo not drawn),-1.5%
2,COc1ccc(/C=C/c2ccc([N+](=O)[O-])cc2)cc1,1.29%
3,CC(NC(=O)C(C)N1C(=O)c2ccccc2C1=O)c1ccccc1 (stereo not drawn),3.47%
4,Cc1ccc(C(=O)Nc2ccc3ccc4cccnc4c3n2)cc1,0.324%
5,Nc1[nH]nc2nc(-c3ccccc3)c3c(c12)CCC3,3.93%
6,CCCCNC(=O)CN1N=C(c2ccc(OC)cc2)CCC1=O,1.41%
7,COCc1cc(C)c2c(N)c(C(=O)c3ccccc3)sc2n1,0.746%
8,Cc1ccc(S(=O)(=O)c2nc(-c3ccc(Cl)cc3)oc2NCCN2CCOCC2)cc1,0.389%
9,COc1ccc(C2Nc3cc(C)ccc3N=C3CC(C)(C)CC(O)=C32)cc1 (stereo not drawn),4.09%
10,CC1=C(C(=O)OCCc2ccccc2)C(c2ccccc2)C2=C(O)CC(C)(C)CC2=N1 (stereo not drawn),0.779%
11,CCN(CC)CC#CC(C)(O)C(C)C (stereo not drawn),0.912%
12,COc1ccc(NC(=O)CSc2nc(N)nc(SC)c2C#N)cc1,-0.366%
13,Cc1cc(C)c(NS(=O)(=O)c2ccc(N)cc2)c(C)c1,-1.38%
14,COc1ccccc1C(=O)Nc1sc2c(c1C(N)=O)CCCCCC2,6.79%
15,O=C(O)c1ccccc1C(=O)Nc1ccc(S(=O)(=O)N2CCOCC2)cc1,3.53%
16,Cc1ccc(-c2cc(C(F)F)nc(N3CCN(Cc4ccccc4)CC3)n2)cc1,0.505%
17,CCC(N)C1CCCCNC1=O (stereo not drawn),-2.7%
18,COc1ccc(C2CC(=O)NC3=C2C(=O)CC(c2ccc(OC)c(OC)c2)C3)c(OC)c1 (stereo not drawn),1.39%
19,CC(C)N(c1c(-c2ccccc2)c(=O)c1=O)C1CCCCC1,-4.68%
20,CC1=C(c2ccc(C)c(C)c2)S(=O)(=O)N(Cc2ccc(C(=O)NCCN3CCCCC3)cc2)C1=O,6.31%
21,CCOc1ccc(C2C3CN(CC)CC=C3C(C#N)=C(N)C2(C#N)C#N)cc1 (stereo not drawn),4.86%
22,CCC1(c2ccc(Cl)cc2)C(=O)c2ccccc2C1=O,-2.51%
23,CCc1ccc(N2CC(C(=O)Nc3cccc(C)c3C)CC2=O)cc1 (stereo not drawn),-6.59%
24,CCOc1cc(C2/C(=C(\O)OC)C(C)=Nc3nnnn32)ccc1OCc1ccccc1 (stereo not drawn),-3.14%
25,CN1CCN(C(=O)CC23CC4CC(CC(C4)C2)C3)CC1,0.392%
26,O=c1/c(=C/c2cccnc2)sc2n1CN(c1ccccc1)CN=2,1.57%

row,Structure (SMILES),% Inhibition @ 10 uM
1,CCOC(=O)C1CCCN(Cc2ccccc2C)C1 (stereo not drawn),-2.03%
2,Cc1scc(CN2CCN(C3CCCCC3)CC2)c1C,2.3%
3,CC(NC(=O)C1CCCN(S(=O)(=O)N2CCOCC2)C1)c1ccccc1 (stereo not drawn),7.68%
4,CC(C)c1ccc(C2C(C(=O)c3ccc4c(c3)OCCO4)=C(O)C(=O)N2CCCn2ccnc2)cc1 (stereo not drawn),-5.1%
5,CC(C(=O)N1CCN(Cc2ccccc2)CC1)n1ncn2cccc2c1=O (stereo not drawn),-3.78%
6,O=C(N[C@@H](Cc1cc(I)c(O)c(I)c1)C(=O)N[C@H](/C=C/S(=O)(=O)c1ccccc1)CCc1ccccc1)c1ccc(N2CCOCC2)cc1,0.173%
7,C#CC(CNC(=O)OCC)N1CCOCC1 (stereo not drawn),-5.46%
8,CCCCNc1sc(S(C)(=O)=O)nc1S(=O)(=O)c1ccc(C)cc1,-0.522%
9,Cc1onc(-c2ccccc2)c1C(=O)Nc1cccc(Cl)c1Cl,-3.09%
10,CCN1CCCC1CNCc1c(C(=O)O)n(Cc2ccccc2C)c2ccccc12 (stereo not drawn),-3.21%
11,Cc1oc(-c2ccccc2Cl)nc1CS(=O)(=O)CC(=O)NCCCSC1CCCCC1,-4.69%
12,CCN1CCC(NCc2cccc(Cl)c2)CC1,3.48%
13,COc1ccc(Cl)cc1NC(=O)CN(c1ccccc1C)S(=O)(=O)c1ccccc1,3.09%
14,CCOC(=O)C1=C(CS(=O)(=O)c2ccc(Cl)cc2)NC(=O)NC1c1ccccc1C (stereo not drawn),4.41%
15,Cc1[nH]c2ccccc2c1C(=O)COc1ccccc1,-3.62%
16,O=Nc1c(O)[nH]c2ccc(Br)cc12,-1.97%
17,COc1ccc(C2C3C(=O)N(c4ccccc4)C(=O)C3ON2c2ccccc2)cc1 (stereo not drawn),-12.5%
18,CN(C)CCNC(=O)C1CCCN(S(=O)(=O)N2CCCCC2)C1 (stereo not drawn),-0.804%
19,CCOc1ccccc1CNCc1c(C(=O)O)n(Cc2ccc(C)cc2)c2cc(OC)ccc12,4.13%
20,CCn1cc(CCC(=O)NC2CCCc3ccccc32)c2ccccc21 (stereo not drawn),0.0244%
21,Cc1cc(C)nc(N2C(=O)c3ccccc3C2=O)n1,-0.771%
22,Cc1c(Cc2ccccc2)c(=O)oc2c3c(ccc12)OCN(Cc1ccco1)C3,-0.685%
23,CCCOc1cc(N(CC)CC)ccc1C=C1C(=O)NC(=S)NC1=O,0.162%
24,CCc1nc2ccccc2n1CCC(N)=O,3.05%
25,Cc1cc(C)nc(SCc2csc(-c3ccccc3)n2)n1,0.0289%
26,CCn1c(CCNC(=O)c2ccc(Cl)cc2)nc2ccccc21,-4.23%

row,Structure (SMILES),% Inhibition @ 10 uM
1,O=C(c1ccco1)N1CCN(C(=O)c2csc3c2CCCC3)CC1,2.95%
2,COC(=O)c1cc(S(=O)(=O)N2CCN(C3CCCCC3)CC2)cn1C,-2.84%
3,O=C(Nc1ccccc1C(=O)O)c1cc(S(=O)(=O)N2CCOCC2)c(Br)s1,2.6%
4,CC1CCN(C(=O)/C(=C/c2ccccc2F)NC(=O)c2ccccc2)CC1,-1.05%
5,O=C(O)CSCc1cnn(-c2ccccc2)c1-n1cccc1,-1.99%
6,Cc1nnc(N2CCC(C(=O)NCCC3=CCCCC3)CC2)c2nn(-c3ccccc3)c(C)c12,0.931%
7,CCC(=O)N1c2ccccc2N=C2CC(C)(C)CC(O)=C2C1c1cccc(F)c1 (stereo not drawn),-10.7%
8,COC(=O)c1c(N)sc(C)c1C,12.9%
9,CC(C)C[C@H](NC(=O)OCC1CC=CCC1)C(=O)NCC#N (stereo partly drawn),-10.1%
10,CC(C)Cn1cc(NC(=O)N2CCN(C(=O)c3ccco3)CC2)c2ccccc2c1=O,-3.26%
11,OCCNCc1cccc(OCc2ccccc2Cl)c1,-3.09%
12,O=C(O)CCNc1ncnc2[nH]cnc12,-5.28%
13,CCOC(=O)C1=C(C)OC(N)=C(C#N)C1c1ccc(F)cc1F (stereo not drawn),1.96%
14,CC(C)C(=O)N1CCN(c2ccc(NC(=O)c3ccco3)cc2Cl)CC1,-1.61%
15,CCn1nc(C)c(NC(=O)CSc2nc(-c3ccc(OC)c(OC)c3)cc(C(F)(F)F)n2)c1C,-2.09%
16,COc1cc2c(cc1OC)C(c1ccccc1)=NCC2,0.132%
17,O=C(O)CCC(=O)Nc1ccccc1C(=O)N1CCN(c2ccc(Cl)cc2)CC1,-0.872%
18,Cc1nc(O)nc(O)c1S(=O)(=O)N1CCCC(C(=O)NCc2ccc3c(c2)OCO3)C1 (stereo not drawn),2.93%
19,COC(=O)c1ccc(Cl)c(-n2cccc2)c1,-3.08%
20,O=C(COc1ccccc1)Nc1ccc2c(c1)OCO2,-9.17%
21,Cc1c(C#N)c(O)nc(O)c1/C=N/c1ccc(S(=O)(=O)CCO)cc1,2.46%
22,c1nc(N2CCN(C3CCCCC3)CC2)c2nc[nH]c2n1,-6.98%
23,Cc1ccc2[nH]c(SCCCOc3ccccc3)nc2c1,-0.0235%
24,Cc1ccc(CNc2nc3c(c(=O)[nH]c(=O)n3C)n2CC(O)COC(C)C)cc1 (stereo not drawn),4.67%
25,CCCN1CCN(C(=O)C2CCN(c3nnc(C)c4c(C)n(-c5ccccc5)nc34)CC2)CC1,3.25%
26,Cc1nc2c(N3CCOCC3)ncnc2[nH]1,-8.12%

row,Structure (SMILES),% Inhibition @ 10 uM
1,Brc1ccc(OCCn2ccnc2)cc1,-1.56%
2,CCSc1nc(O)c(CC)c(=O)n1C(C)CC (stereo not drawn),-5.32%
3,Cc1csc(NC(=O)C(=O)c2cc(C)n(-c3c(C)cccc3C)c2C)n1,0.655%
4,O=C(Nc1sc2c(c1CN1CCCCC1)CCCC2)c1ccc(Br)cc1,1.08%
5,CCCCC(=O)Nc1ccc(-c2cn3cccc(C)c3n2)cc1,-2.64%
6,CC(C)OC(=O)c1ccc(-c2ccc(C=C3C(=O)OC(C)(C)OC3=O)o2)cc1,-9.24%
7,CCOc1ccc(S(=O)(=O)N(CC(=O)N2CCCCCC2)c2ccc(C)cc2)cc1,-6.3%
8,CC(C)C(=O)Nc1ccc2nc(-c3cccc(F)c3)oc2c1,1.05%
9,O=C(CSc1ccccn1)Nc1nccs1,2.19%
10,CCC(C)c1ccccc1NC(=O)c1cccnc1 (stereo not drawn),2.22%
11,Cc1csc(NC(=O)c2ccccc2Cl)n1,5.55%
12,Cc1ccc2c(CC(=O)NC3CCS(=O)(=O)C3)coc2c1C (stereo not drawn),-0.671%
13,N#C/C(=C\c1ccccc1F)c1nc(-c2ccccc2)cs1,3.47%
14,O=C(C1c2ccccc2Sc2ccccc21)N1CCCCC1,-0.828%
15,COc1cc2c(cc1OC)CN(Cc1cc(Br)c(O)c(OC)c1)CC2,1.4%
16,CC1=C(C(=O)Nc2cccc(C)n2)C(c2ccccc2C)C2=C(O)CCCC2=N1 (stereo not drawn),4.65%
17,Cc1cc(C)c2ccc(=O)cc-2o1,5.08%
18,COc1cccc(C2C3=C(O)CCCC3=NC(C)=C2C(=O)Nc2cccc(C(F)(F)F)c2)c1OC (stereo not drawn),2.38%
19,COC(=O)C1=C(C)NC(=O)NC1c1ccc2c(c1)OCCO2 (stereo not drawn),-3.74%
20,O=C(CSc1nnc2ccccn12)Nc1nc(-c2ccc(Cl)cc2)ns1,-1.11%
21,CCOC(=O)c1cnc2c(C(F)(F)F)cccc2c1NCCO,1.52%
22,CCOC(=O)N1CCC(NC(=O)C2CCCN(c3nc4ccccc4o3)C2)CC1 (stereo not drawn),0.387%
23,CN1CCN(CCNC(=O)c2[nH]c3ccccc3c2Sc2ccc(Cl)cc2)CC1,-6.82%
24,O=C(CNC(=S)N(Cc1ccccc1)Cc1ccccc1F)NCc1ccc2c(c1)OCO2,5.99%
